Experimental data reported in the supplement of paper PMC11876631.
Residue numbers refer to the chain shown, from its start. Names and notes keep the numbering of the source. ± gives the standard deviation of the averaged measurements. Laboratory Escherichia coli strains with one amino-acid change in an essential protein, pooled on minimal glucose agar with carbenicillin or gentamicin at twice the control MIC (plus kanamycin and chloramphenicol for the plasmids), 48 h. Fold change of barcode share against drug-free plates; higher = less susceptible. Active = above 20 in both replicates (the paper's putatively resistant). '<' = one read or none on drug, '>' = one read or none on a drug-free plate. Shares are relative, so most strains fall below 1 when a few take over. Listed are strains with at least 15 reads on both drug-free plates, and hits; most hits rest on fewer reference reads. Replicate rank correlation about 0.5. Edits are read from barcodes.

B1: ftsI V468Q (protein)
chain: MKAAAKTQKPKRQEEHANFISWRFALLCGCILLALAFLLGRVAWLQVISPDMLVKEGDMRSLRVQQVSTSRGMITDRSGRPLAVSVPVKAIWADPKEVHDAGGISVGDRWKALANALNIPLDQLSARINANPKGRFIYLARQVNPDMADYIKKLKLPGIHLREESRRYYPSGEVTAHLIGFTNVDSQGIEGVEKSFDKWLTGQPGERIVRKDRYGRVIEDISSTDSQAAHNLALSIDERLQALVYRELNNAVAFNKAESGSAVLVDVNTGEVLAMANSPSYNPNNLSGTPKEAMRNRTITDVFEPGSTVKPMVVMTALQRGVVRENSVLNTIPYRINGHEIKDVARYSELTLTGVLQKSSNVGVSKLALAMPSSALVDTYSRFGLGKATNLGLVGERSGLYPQKQRWSDIERATFSFGYGLMVTPLQLARVYATIGSYGIYRPLSITKVDPPVPGERVFPESIVRTVQHMMESVALPGGGGVKAAIKGYRIAIKTGTAKKVGPDGRYINKYIAYTAGVAPASQPRFALVVVINDPQAGKYYGGAVSAPVFGAIMGGVLRTMNIEPDALTTGDKNEFVINQGEGTGGRS
B2: ftsI V468D (protein)
chain: B1 chain with Q468D
B3: ftsI M471A (protein)
chain: B1 chain with Q468V, M471A
B4: ftsW I124A (protein)
chain: MRLSLPRLKMPRLPGFSILVWISTALKGWVMGSREKDTDSLIMYDRTLLWLTFGLAAIGFIMVTSASMPIGQRLTNDPFFFAKRDGVYLILAFILAIITLRLPMEFWQRYSATMLLGSIILLMAVLVVGSSVKGASRWIDLGLLRIQPAELTKLSLFCYIANYLVRKGDEVRNNLRGFLKPMGVILVLAVLLLAQPDLGTVVVLFVTTLAMLFLAGAKLWQFIAIIGMGISAVVLLILAEPYRIRRVTAFWNPWEDPFGSGYQLTQSLMAFGRGELWGQGLGNSVQKLEYLPEAHTDFIFAIIGEELGYVGVVLALLMVFFVAFRAMSIGRKALEIDHRFSGFLACSIGIWFSFQALVNVGAAAGMLPTKGLTLPLISYGGSSLLIMSTAIMMLLRIDYETRLEKAQAFVRGSR
B5: ftsW V201W (protein)
chain: B4 chain with A124I, V201W
B6: ftsW V201Q (protein)
chain: B4 chain with A124I, V201Q
B7: ftsW V201A (protein)
chain: B4 chain with A124I, V201A
B8: argC I149A (protein)
chain: MLNTLIVGASGYAGAELVTYVNRHPHMNITALTVSAQSNDAGKLISDLHPQLKGIVDLPLQPMSDISEFSPGVDVVFLATAHEVSHDLAPQFLEAGCVVFDLSGAFRVNDATFYEKYYGFTHQYPELLEQAAYGLAEWCGNKLKEANLAAVPGCYPTAAQLALKPLIDADLLDLNQWPVINATSGVSGAGRKAAISNSFCEVSLQPYGVFTHRHQPEIATHLGADVIFTPHLGNFPRGILETITCRLKSGVTQAQVAQVLQQAYAHKPLVRLYDKGVPALKNVVGLPFCDIGFAVQGEHLIIVATEDNLLKGAAAQAVQCANIRFGYAETQSLI
B9: argC I149Q (protein)
chain: B8 chain with A149Q
B10: argC I149W (protein)
chain: B8 chain with A149W
B11: argC I149D (protein)
chain: B8 chain with A149D

Biological target: Escherichia coli (laboratory strain)
Experiment: barcode share on antibiotic plates over drug-free plates; higher = less susceptible
Description: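 A pool of E. coli strains, each edited to carry one amino-acid change in an essential protein, was grown for 48 h on minimal glucose agar with or without antibiotic; strain barcodes were sequenced; mean of two replicates.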

[1] = antibiotic: carbenicillin, 2× MIC (3.1 µg/mL)
[2] = antibiotic: gentamicin, 2× MIC (MIC 0.45 µg/mL)

Protein	fold change of barcode share [1]	fold change of barcode share [2]
B1	0.298 ± 0.035	< 0.00439
B2	0.29 ± 0.096	0.0195 ± 0.0043
B3	98.6 [active]	–
B4	0.191 ± 0.23	< 0.0179
B5	0.368 ± 0.061	0.00678 ± 0.0069
B6	1.29 ± 0.4	0.00622 ± 0.0015
B7	0.489 ± 0.072	0.0062 ± 0.0011
B8	1.02 ± 0.65	0.0244 ± 0.012
B9	2.98 ± 0.96	–
B10	0.465 ± 0.041	0.0181 ± 0.013
B11	> 22.6 [active]	–
